In the supplement of paper PMC9446081:
Among all 39,000 compounds or so, about 220 (0.56%) showed activity. This is one part of the list.

System: Escherichia coli K-12 BW25113
Experiment: relative growth (OD600 normalised to plate interquartile mean) (fraction); higher = less growth inhibition, active = 0.2 or less
Conditions: 50 µM; LB; incubation time: overnight (16-24 h)
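Note: static incubation at 37 °C against the wild-type strain, values averaged over two biological replicates.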

Compound | relative growth
CCCNC(=O)N(C)C[C@@H]1Oc2cc(-c3ccccc3F)ccc2S(=O)(=O)N([C@H](C)CO)C[C@@H]1C | inactive: 0.988
Cc1c[nH]cnc1=O | inactive: 1.01
CN1C=C(C(=O)OCCS(C)(=O)=O)C(C(=O)OCCS(C)(=O)=O)=CC(CCCO)=C[C@@H]1C1CC1 | inactive: 1.04
Cc1ccc(S(=O)(=O)Nc2cccc3c2O[C@H](CN(C)S(=O)(=O)c2ccc(F)cc2)[C@@H](C)CN([C@@H](C)CO)C3=O)cc1 | inactive: 1
COC(=O)c1ccc(Cn2cc(C(=O)NO)nn2)o1 | inactive: 0.974
Cc1ccc(S(=O)(=O)Nc2cccc3c2O[C@@H](CN(C)S(=O)(=O)c2cn(C)cn2)[C@@H](C)CN([C@@H](C)CO)C3=O)cc1 | inactive: 1.06
CC(C)(Oc1ccc(Cl)cc1)C(=O)O | inactive: 0.993
Nc1nc(C(F)(F)F)ncc1C(=O)O | inactive: 1.04
COc1ccc(NC(=O)N(C)C[C@@H]2OCCCC[C@@H](C)Oc3ccc(NS(=O)(=O)c4ccc(Cl)cc4)cc3C(=O)N([C@@H](C)CO)C[C@@H]2C)cc1 | inactive: 0.993
COc1ccc(S(=O)(=O)N(C)C[C@@H]2Oc3c(NS(=O)(=O)c4ccccc4)cccc3C(=O)N([C@H](C)CO)C[C@@H]2C)cc1 | inactive: 1.01
C[C@H](CO)N1C[C@H](C)[C@H](CN(C)Cc2ccc(-c3ccccc3)cc2)Oc2ccc(NS(=O)(=O)c3ccc(F)cc3)cc2CC1=O | inactive: 1.01
O=C1NCCc2cncn21 | inactive: 1.03
COCC(=O)N1C[C@@H](C)[C@H](OC)CN(C)C(=O)c2cc(NC(=O)Nc3cccc(F)c3)ccc2OC[C@H]1C | inactive: 1.01
O=C(O)C[C@@H](O)C(=O)O | inactive: 1.03
C[C@@H]1CN([C@@H](C)CO)C(=O)Cc2cc(NC(=O)Cn3cnnn3)ccc2O[C@H]1CN(C)C(=O)Nc1cccc2ccccc12 | inactive: 0.993
Nc1nc(F)nc2c1ncn2[C@@H]1O[C@H](COP(=O)(O)O)[C@@H](O)[C@@H]1O | inactive: 0.329
COc1ccc(S(=O)(=O)Nc2ccc3c(c2)C(=O)N([C@H](C)CO)C[C@@H](C)[C@@H](CN(C)Cc2ccncc2)O3)cc1 | inactive: 1
O=C(C[C@H]1CC[C@H]2[C@@H](COC[C@H](O)CN2C(=O)c2ccccc2)O1)N1CCOCC1 | inactive: 1.05
Cc1ccc2sc(N(CCCN(C)C)C(=O)c3ccc(S(=O)(=O)N(C)C4CCCCC4)cc3)nc2c1C | inactive: 1.1
C[C@H](CO)N1C[C@H](C)[C@@H](CN(C)Cc2ccc(Cl)c(Cl)c2)Oc2ccc(NC(=O)Cn3cnnn3)cc2C1=O | inactive: 1
